Experimental data from PubChem BioAssay AID488969 (Vanderbilt High Throughput Screening Facility, 2010).
The full ranking holds about 110,000 compounds; the median of “z-score” is about -0.1, and the highest 2% start at about 2. This is one part of the list.

The compounds below were run against Metabotropic glutamate receptor 8 (Rattus norvegicus) (UniProt P70579) (assay: rat mGluR8 modulators via GIRK flux, primary screen, cell-based, thallium flux, HTS (AID 488969)). Details: HEK293 rat mGluR8, GIRK (G protein-gated inwardly rectifying potassium channel) thallium flux, FluoZin2; at 10 µM; stronger effect = higher value; submaximal glutamate (EC20) added with thallium.
UniProt P70579, sequence (P70579 whole entry, looked up): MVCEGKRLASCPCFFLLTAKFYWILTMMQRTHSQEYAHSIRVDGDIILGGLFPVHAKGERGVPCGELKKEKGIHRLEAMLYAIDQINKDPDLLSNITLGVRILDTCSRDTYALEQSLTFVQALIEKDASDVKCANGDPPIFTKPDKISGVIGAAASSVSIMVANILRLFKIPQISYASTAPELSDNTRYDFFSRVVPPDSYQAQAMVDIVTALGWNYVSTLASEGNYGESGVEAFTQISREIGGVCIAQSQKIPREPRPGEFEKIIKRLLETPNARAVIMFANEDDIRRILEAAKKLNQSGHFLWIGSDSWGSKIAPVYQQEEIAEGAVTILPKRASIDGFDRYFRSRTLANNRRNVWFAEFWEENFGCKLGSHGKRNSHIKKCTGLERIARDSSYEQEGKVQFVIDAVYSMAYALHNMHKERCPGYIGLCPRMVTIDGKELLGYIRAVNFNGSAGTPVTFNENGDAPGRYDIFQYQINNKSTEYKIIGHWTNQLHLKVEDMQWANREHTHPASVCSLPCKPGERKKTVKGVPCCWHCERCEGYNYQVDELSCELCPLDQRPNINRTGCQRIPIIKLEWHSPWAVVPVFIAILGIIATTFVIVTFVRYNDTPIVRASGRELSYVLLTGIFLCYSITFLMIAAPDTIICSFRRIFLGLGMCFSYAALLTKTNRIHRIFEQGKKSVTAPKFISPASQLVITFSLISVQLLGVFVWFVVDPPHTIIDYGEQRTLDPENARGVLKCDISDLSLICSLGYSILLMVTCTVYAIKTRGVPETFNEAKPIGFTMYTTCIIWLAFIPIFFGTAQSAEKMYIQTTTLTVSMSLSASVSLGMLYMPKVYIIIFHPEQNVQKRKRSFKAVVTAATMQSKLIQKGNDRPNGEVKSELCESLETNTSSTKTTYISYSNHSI

SMILES | z-score
CCC(=O)c1ccc(OC(=O)c2ccc(Br)o2)cc1 | -0.00202
CC(NC(=O)c1ccc(S(=O)(=O)N(C)C)cc1)c1ccccc1 (stereo not drawn) | 0.967
Cc1ccc(N2CC(C(=O)N3CCc4ccccc43)CC2=O)cc1 (stereo not drawn) | -0.0766
COc1ccccc1S(=O)(=O)Cc1ccc(C(=O)NCc2ccc3c(c2)OCO3)o1 | -0.0657
CC1CCN(S(=O)(=O)c2ccc(NC(=S)NC(=O)c3ccc(Cl)cc3)cc2)CC1 | -0.142
COc1ccc(N2CCN(C(c3cc4cc(C)ccc4[nH]c3=O)c3nnnn3Cc3ccccc3)CC2)cc1 (stereo not drawn) | 0.064
COc1ccccc1N1CCN(CC(=O)Nc2c(C)n[nH]c2C)CC1 | -0.64
Cc1noc(C)c1CSc1nnc2ccccn12 | -0.139
CCOC(=O)Nc1oc2ccccc2c(=O)c1C | -0.0729
CC(C)Oc1ccc(C(CC(=O)NCCCN(C)C)c2ccc(F)cc2)cc1 (stereo not drawn) | -1.46
COc1ccccc1NS(=O)(=O)c1ccc(NC(=O)c2nc3ncccn3n2)cc1 | -0.0329
COc1cc(/C=N/Nc2ccc(Cl)cc2)ccc1OC(=O)c1cccs1 | 0.925
COc1ccc(N2CCN(C(=O)CCc3ccc(S(=O)(=O)NC(C)C)cc3)CC2)cc1 | 0.0553
Cc1cc(C)c(NC(=O)CO/N=C2\CCCc3nonc32)c(C)c1 | 0.408
O=C(/C=C/c1ccco1)Nc1ccc2nn(-c3ccccc3)nc2c1 | -0.116
CO/N=C/NC(=O)NOCc1ncc(C(F)(F)F)cc1Cl | -0.706
CN1CCN(C(=O)c2cc3nc(-c4ccccc4)cc(-c4ccccc4)n3n2)CC1 | -0.147
O=C(CCSc1ccccc1)NC(=O)COC(=O)c1ccc(OC(F)F)cc1 | -0.114
CCOC(=O)c1ccccc1Nc1cn(C(C)=O)c2ccccc12 | 2.73
O=C(NC(O)C(=O)c1ccccc1)c1cccs1 (stereo not drawn) | -0.437
Cc1cccc(CC2CC(=O)N(c3ccccc3)C2=O)c1 (stereo not drawn) | -0.0577
COC(=O)c1cccc(NC(=O)Cc2coc3cc(OC)ccc23)c1 | -0.827
Cc1ccc(NC(=S)N(CCCN2CCOCC2)Cc2cccs2)c(C)c1 | -0.169

SMILES | z-score
O=C(CCCCCn1c(SCC(=O)c2ccccc2)nc2ccccc2c1=O)NCc1ccco1 | -0.107
CCn1c(CCNC(=O)c2ccc(Cl)cc2)n[nH]c1=S | -0.774
O=C(N/N=C/c1ccco1)c1ccc(Br)o1 | 0.452
CCOC(=O)c1ccc2c(c1)nc(SCC(=O)NC(C)C)n2CC | -0.178
CCNC(=S)NNC(=O)Cc1ccccc1 | -0.171
c1ccc(CNn2c(N3CCOCC3)nc3ccccc32)cc1 | 0.241
COc1ccc(/C=C2\NC(=S)N(CC3CCCO3)C2=O)c(OC)c1C (stereo not drawn) | 2.32
Cc1coc(C)c1C(=O)CC1(O)C(=O)N(CCc2ccccc2)c2ccccc21 (stereo not drawn) | -0.544
COCC(=O)NC(c1ccccc1)c1ccccc1 | 0.129
CN(Cc1ccccc1)C(=O)Cn1nc(C(F)(F)F)c2c1CCC2 | 1.1
O=C(NCCc1ccccc1)C(=O)NN=C1CCCC1 | -0.407
COc1nc(-c2cccs2)cc(-c2ccc(C)cc2)c1C#N | 0.115
N#Cc1c(N)nc2c3c(sc(=N)c2c1N)NC(=O)CC3c1ccccc1 (stereo not drawn) | -0.0395
CC1=CC(C)(C)n2c(O)c(N=N)c3cc(C)cc1c32 | -0.683
Cc1cccc(OCCNC(=O)c2ccc(Oc3ccc(C(F)(F)F)cc3[N+](=O)[O-])cc2)c1 | -0.195
O=C(N1CCOCC1)N1CCN(c2ccc(F)cc2)CC1 | -0.0472
O=C(NCc1ccccc1)c1cc(=O)[nH]c2ccccc12 | 0.356
COc1cccc(-c2nn(C)c3sc(C(=O)NCc4ccc5c(c4)OCO5)cc23)c1 | -0.269
CCCC(=O)c1c(C)c2ccccc2n1C | -0.809
Cc1cccnc1NC(=O)c1cc2c(=O)oc3ccccc3c2s1 | -0.0284
CCCn1c(C(O)c2cc(OC)ccc2OC)nc2ccccc21 (stereo not drawn) | -0.331
CCN1C/C(=C/c2ccc(N3CCOCC3)cc2)C(=O)/C(=C/c2ccc(N3CCOCC3)cc2)C1 | -0.947
CC(C)NC(=O)NC(=O)CSc1nncn1C | -0.0717

SMILES | z-score
CCCC(=O)Nc1nc2c(OC)ccc(OC)c2s1 | 0.152
CCN1C(=O)CSC1=NC12CC3CC(CC(C3)C1)C2 | 0.196
COC(=O)c1ccccc1NC(=O)c1ccc(-c2cccc(Cl)c2)o1 | -0.0272
CC(C)(C)NC(=O)C(c1c[nH]c2ccccc12)N(C(=O)Cn1nnc(-c2ccc(Cl)cc2)n1)c1ccccc1F (stereo not drawn) | -0.447
O=C(Cn1cc2c(n1)CCCC2)NCc1cccs1 | 0.0253
O=[N+]([O-])c1ccc(Cl)c(CN2CCC(O)CC2)c1 | -0.183
COc1cc(OC)cc(C(=O)NC(=S)Nc2cc3oc4ccccc4c3cc2OC)c1 | 0.106
COc1ccc(-c2cc(C(F)(F)F)nc(N3CCOCC3)n2)cc1OC | -0.32
COc1ccc2oc(=O)c(C(=O)N3c4ccccc4CC3C)cc2c1 (stereo not drawn) | -0.415
CN1CCN(S(=O)(=O)c2cc([N+](=O)[O-])ccc2N/N=C/c2ccc(Cl)cc2)CC1 | 0.22
COc1ccc(NC(=O)C(C/C=C(/C)Cl)C(C)=O)cc1 (stereo not drawn) | -0.155
CCN(CC)c1ccc(NC(=O)c2cccc(OC)c2)c(C)c1 | 0.0766
CC1(C)Cc2c(ccc3ccccc23)C(=O)N1 | -0.203
CN(Cc1ccccc1)C(=O)CN(Cc1ccccc1)S(C)(=O)=O | 0.0708
CC(=O)Nc1c(O)nc(SCc2ccccc2C#N)[nH]c1=O | -0.195
Cc1cc(=O)n2c3ccccc3n(CC(O)CN3CCCCC3)c2c1C#N (stereo not drawn) | -0.251
COc1ccc(-c2cc(C(F)(F)F)n3nc(C)cc3n2)cc1 | -0.182
Cc1ccnc(SCC(=O)Nc2c(C)n(C)n(-c3ccccc3)c2=O)n1 | -0.181
CCCC1(CCC)NC(=O)N(CC(=O)Nc2cccc(OC)c2)C1=O | -1.59
CCOc1ccc(N2C(=O)CN(C)C2=S)cc1 | 1.35
CNc1c([N+](=O)[O-])cnn1-c1ccc(Cl)cc1Cl | -0.197
CCOC(=O)c1ccccc1N/C=C/C(=O)c1cccs1 | -0.488
Cc1c(Cl)c([N+](=O)[O-])nn1CCCC(=O)N(Cc1ccccc1)Cc1ccccc1 | -0.324

SMILES | z-score
COc1ccc(CC(=O)N2CCCc3ccccc32)cc1 | 0.036
C=CCn1c(Cc2cccs2)nnc1SCC(=O)c1ccc2ccccc2c1 | -0.708
COc1cc2c(cc1OC)C(c1ccccc1)N(C(=O)CCl)CC2 (stereo not drawn) | -0.148
O=C(Nc1ccc2c(c1)OCO2)Nc1ccc(Cl)cc1Cl | 0.19
N/C(Cc1ccc([N+](=O)[O-])cc1)=N\OC(=O)COc1ccccc1Cl | -0.645
COc1ccc(CN2CCCC2C(=O)Nc2ccc(OC)c(OC)c2)cc1OC (stereo not drawn) | 0.166
Cc1ccc(C#CC[N+]2(CC#Cc3ccc(C)cc3)CCCCC2)cc1 | 0.0354
O=C(O)c1ccc2[nH]c3c(c2c1)CSCC3 | 0.316
O=C(CSc1ccccc1)NCc1ccco1 | -0.232
O=C(NCc1ccc2c(c1)OCO2)C1CCCN(C(=O)c2ccc(Cl)cc2)C1 (stereo not drawn) | -0.19
Cc1ccc(C)c(N2CCN(C(=O)CCNC(=O)Cn3ccc4ccccc4c3=O)CC2)c1 | -0.336
COc1ccccc1NC(=O)N(Cc1ccco1)Cc1cc2c(C)ccc(C)c2[nH]c1=O | -0.193
CN1C(=O)CC(N2CCN(c3ccccc3)CC2)C1=O (stereo not drawn) | -0.119
CN1CCN(S(=O)(=O)c2ccc(NC(=O)c3cccs3)cc2)CC1 | -0.184
CCOc1ccc(OCCOc2ncnc3ccccc23)cc1 | 0.0424
COc1ccc(NC(=O)c2cc(SC)ccc2Cl)cc1 | -0.371
COc1ccc(CNCC(O)(c2ccccc2)c2ccc(Cl)cc2)cc1 (stereo not drawn) | 0.316
C=CCNC(=S)NNc1nc2c(c(=O)[nH]1)C1(CCCCC1)Cc1ccccc1-2 | -0.285
CC(C)Oc1ccc(S(=O)(=O)N(C(C)C)C(C)C)cn1 | -0.497
COc1ccc(Cl)cc1NC(=O)c1ccoc1C | -0.939
COc1ccc(-n2ccnc2SCC(=O)Nc2ccc(OC)cc2OC)cc1 | -0.371
O=C(CSc1nc(-c2cccs2)cc(C(F)(F)F)n1)NCCCn1ccnc1 | -0.35
CCN1CCN(c2nc(-c3ccncc3)nc3ccccc23)CC1 | -0.184

SMILES | z-score
COc1ccc([N+](=O)[O-])cc1NCc1ccccc1 | -0.448
O=c1c2cc(Cl)ccc2oc2nc3n(c(=O)c12)CCCS3 | 0.0365
O=C(Cn1nc(-c2ccccc2F)ccc1=O)Nc1ccc(S(=O)(=O)N2CCCCCC2)cc1 | -0.105
COc1cccc(/C=N/NC(=O)CO/N=C(\C)c2cccs2)c1OC | -0.782
CC(C)C(=O)Nc1nnc(CCN2CCCCC2)s1 | 1.67
Cc1ccc(NNC(=S)Nc2ccc(C(C)C)cc2)c(C)c1 | -1.28
C/C(=N/NC(=O)c1ccoc1C)c1cccc(NC(=O)C2CC2)c1 | -0.503
COc1cc(/C=N/n2cnnc2)ccc1OS(=O)(=O)c1ccccc1[N+](=O)[O-] | -0.365
O=C(Nc1ccc(Cl)cc1)N(C1=NCCC1)c1ccc(OC(F)F)cc1 | 0.798
COCCNC(=O)c1onc(CSc2ccccc2C)c1C(=O)O | -0.0186
O=C(Nc1nccs1)c1cc(-c2ccccc2)nc2ccccc12 | -0.659
COCCN(C(=O)CNC(=O)c1ccco1)C(C(=O)NC1CCCC1)c1cccs1 (stereo not drawn) | -0.163
COc1cc(SC#N)ccc1N=Cc1c(C)[nH]n(-c2ccc(Cl)cc2)c1=O | -0.12
CC(=O)NNC(=O)c1ccncc1 | 0.258
CCOC(=O)Cn1c(CN2CCN(C(c3ccccc3)c3ccccc3)CC2)nc2c1c(=O)n(C)c(=O)n2C | -0.899
COc1cc(NS(=O)(=O)c2ccc(NC(=O)COc3ccc(C)cc3)cc2)nc(OC)n1 | -0.0517
COc1ccc(N=CC2=C(O)CC(c3ccccc3)CC2=O)c(OC)c1 (stereo not drawn) | -0.641
Cc1onc(-c2ccccc2Cl)c1C(=O)Nc1nnc(-c2ccc(F)cc2)s1 | 0.78
COc1ccccc1-n1nnnc1SCc1cc2c(cc1Br)OCO2 | 0.011
CCn1cc(SCC(=O)Nc2cc(C)on2)c2ccccc21 | -0.0523
CCCCc1noc2c1/C(=N\O)CC(c1ccccc1)C2 (stereo not drawn) | 0.279
